The chains are these.
B1: LINE1-mini (parent)
chain: GGCAGAGCUCAACACAGCGUGGCAAAGUGGCUGUGGCUAGACUGCC

The source gives no read counts; variants with many changes may rest on few reads.

The variants in the data set derive from B1. Nature of the data set: self-cleavage, relative activity (ratio to wild type); higher = more cleavage; in vitro, sequencing; the parent is a self-cleaving ribozyme.
Take GGCAUAGCUCAACACUGCGUGGCAAAGUGGCUGUAGCUAGACUGCC: the self-cleavage is 0.05.

For the variant GGCAUAGCUCCAUACAGCGUGGCAAAGUGCCUGUGGCUAGACUGCC, the self-cleavage turned out to be 0.04. For GGCAUAGCUCAUCACAGCCUGGCAAAGUGGCUGUGGCGAGACUGCC the value was 0; for GGCAUAGCUCGACACAUCGUGGCAGAGUGGCUAUGCCUAGACUGAC, 0. Consider GGCAUAGCUCCACACACCGUGGAAAAGUGACUGUGGCUAGACUGCC, for which the self-cleavage was 0.01. Turning to GGCAUAGCUCAACACGGCGUGGCAAAGUGGCUGUGGCUAGACUGAC, the self-cleavage stood at 0.01. For GGCAUAGCUCGACAAAGCUUGGCAAAGUGGCUGUAGCUAGUCUGCC the value was 0.04. For GGCAUAGCUCAACACAGCGUGGCCAAGUGGCUAUGGCUAGACUGCC the value was 0.03. The same measure for GGCAUAGCUCAACACAGCGUGGCAAGGCGGCUGUCGCUAGACUGUC: 0.03; for GGCAUAGCUCUACACAGCGUGGCAAAGUGGCUGUGGCUAUACUGCC: 0.1. Turning to GGCAUAGCUCACCAAAGCGUGGCCAAUUGGCUGUGGCUAGACUGCC, the self-cleavage came out at 0.04. For GGCAUAGCUCGACACAGAGUGGCAAAGUGGCUGUGGCUAGACUCCC the value was 0.03; for GGCAUAGCUCAACCCAGCGUGGCAAAGUGGCUGUGGGUAGACUGCC, 0.06. In the case of GGCAUAGCUCAACACCGCCUGGCAAAGUGGCUGUGGCUAGACUGCC, the self-cleavage came out at 0.05. Turning to GGCAUAGCUCAACACGGCGUGGAAAAGUGGCUGUGGCAAGACUGCC, the self-cleavage worked out at 0.03. For GGCAUAGCUCAACACAGCGUGGCACAGUGACUGUGGCUAGACUGCC the value was 0.09; for GGCAUAGCUCAACACGGCGUGGCAAAGUGGCUGUGGCUAGACUGCA, 0.03; for GGCAUAGCUCAACACAGCGUGGCACAUUGGCUGUGGCUAGACUGCC, 0.04.

GGCAUAGCUCAGCACAGCGGGGCAAAGUGGCUGUGGCUAGACUGCC: the self-cleavage came out at 0.03. As to GGCAUAGCUCAACACAGCGUGGCAUAGUUGCUGUGGCUAGACUGCC, the self-cleavage worked out at 0.24. On to GGCAUAGCUCAACACAGCGUGGCUAAGUGGCUGUGGCUAGACUGGC, for which the self-cleavage is 0.14. Regarding GGCAUAGCUCAACACAGCGUGGCAAGGUGGCUGUGGUUACACUGCC, the self-cleavage was 0.05. For GGCAUAGCUCAACUAAGAGUGGCAAAGUGGCUGUGGCUAGACUGCC the value was 0.08; for GGCAUAGCUCAACCCAGCGUGGCAUAGUGGCUGUGGCUAGACUGCC, 0.07. Turning to GGCAUAGCUCAACUCAGCGUGGCAAAGUGCCUGUGGCUAGACUGCC, the self-cleavage turned out to be 0.02. For the variant GGCAUAGCUCACCACAGCGUGGCAAAGUGGAUGUGGCUAGACUGCC, the self-cleavage turned out to be 0.01. With GGCAUAGCUCAACGCAGCGUGGAAAAGUGGCUGUGGCUAGACUGCC, the self-cleavage was 0.06. Turning to GGCAUAGCUCAACUCAGCGUGGAAAAGUGGCUGUGGCUAGACUUCC, the self-cleavage came out at 0.07.

On to GGCAUAGCUCAACGCAGCGUGGCAAAGUGGCUGUAGCUAGACUGCC, for which the self-cleavage worked out at 0.04. Take GGCAUAGCUCAACACGGCGUUGCAAAGUGGCUGUGGCUAGACUGCC: the self-cleavage came out at 0.07. The same measure for GGCAUAGCUCGAAACAGCGUGGCAAAGUGGCUGUUGAUAGACUGCC: 0.08; for GGCAUAGCUCAGCACAGCGUGGCAAAGUGGCUGUGGCUAGACUGCA: 0.01.

As for GGCAUAGCUCUACACAGCGUGGCAAAGAGGCUGUAGCUAGACUGCC, the self-cleavage was 0.02. Turning to GGCAUAGCUCAACACGGCGUGGCAAAGUGGCUGUGGCUAUACUGCC, the self-cleavage stood at 0. The same measure for GGCAUAGCUCACCACAGCGUGGCAAAGUGGCUGUCGCACGACUGCC: 0.05; for GGCAUAGCUCAACACCGCGUGGCAAAGUGUCUGUGGCUAGACUGCC: 0. As to GGCAUAGCUCCACAGAGCGUGGCAAAGUGGCUGUGUCUAGAUUGCC, the self-cleavage is 0.01. For GGCAUAGCUCUACACAGCGUUGCAAAGUGGCUGUGGCUAGACUGCC the value was 0.03. The same measure for GGCAUAGCUCAACGCAGCGUGGCAAAGUGGCUGUGGCUUGAAUGCC: 0.15. For GGCAUAGCUCAACACGGCGUGGCAAAGUGGCUGUUGCUAGACUGCC the value was 0.05; for GGCAUAGCUCAACGCAGCGUGGCAAAGUGGCUGUGUGUAGAGUGCC, 0.03. For the variant GGCAUAGCUCACCGCAGCGUGGCAAAGUGGCUGUGGCUAGACCGCC, the self-cleavage was determined as 0.03. With GGCAUAGCUCAGAACAGUGUGGCAAAGUGGCUGUGGCUCGACUGCC, the self-cleavage was found to be 0.05. Turning to GGCAUAGCUCAACACAGCGUGGCCAAGUGGCUGUGGCUAGAAUGCC, the self-cleavage worked out at 0.05. On to GGCAUAGCUCUACACACCGUGGCAAAGUGGCUGUGGCUAGACUGCC, for which the self-cleavage stood at 0.01. With GGCAUAGCUCGACACAGCGUGGCUAAGUGGAUGUGGCUAGACUGCC, the self-cleavage stood at 0.01. For GGCAUAGCUCGACACAGCGUGGCAAAGUCGGUGUAGCUAGACUGCC the value was 0; for GGCAUAGCUCAACGAUGGGUGGCAAAGUGGCUGUGGCUAGACUACC, 0.07; for GGCAUAGCUCUACACAGCAUAGCAAAGAGGCUGUGGCUAGACUGCC, 0.02. The same measure for GGCAUAGCUCAACACAGCGUGGCAGAGUGGCUGUGGCUAGUCUGCG: 0.05; for GGCAUAGCUCAACACAGCGUGGCUAAGUGGCUAUGGCUAGACUGCC: 0.02. In the case of GGCAUAGCUCAACACAGCGUGGCACAGUGGCUGCGGCUAGACUGCC, the self-cleavage is 0.03.

For GGCAUAGCUCAACACGGCGUGGCAAAGUGGCUGUGGAUAGACUGCC, the self-cleavage was found to be 0.14. Regarding GGCAUAGCUCAACACAGCGUGGCAACGUGGCUGUGGAUAGUCUGCC, the self-cleavage turned out to be 0.05. The same measure for GGCAUAGCUCCACACAGCGUGGCAAAGUGGCUGUAGCUAGACUGCC: 0.06; for GGCAUAGCUCUACACAGCGUGGCCAAGUGGCUGUGGGUAGACUGCC: 0.01.

The values above are taken from the RNAGym collection of RNA variant scans (doi:10.7554/elife.90254).
